# Source: the supplement of paper PMC11098506
# ± gives the standard deviation of the averaged measurements.
# B1: VDAC2; numbered along this chain (parent)
# chain: MATHGQTCARPMCIPPSYADLGKAARDIFNKGFGFGLVKLDVKTKSCSGVEFSTSGSSNTDTGKVTGTLETKYKWCEYGLTFTEKWNTDNTLGTEIAIEDQICQGLKLTFDTTFSPNTGKKSGKIKSSYKRECINLGCDVDFDFAGPAIHGSAVFGYEGWLAGYQMTFDSAKSKLTRNNFAVGYRTGDFQLHTNVNDGTEFGGSIYQKVCEDLDTSVNLAWTSGTNCTRFGIAAKYQLDPTASISAKVNNSSLIGVGYTQTLRPGVKLTLSALVDGKSINAGGHKVGLALELEA
# Variants of: B1
# Assay: log2 fold difference of barcode abundance, FLAG-VDAC2-high vs FLAG-VDAC2-low sorted fraction (expression level) (log2 ratio); higher = higher VDAC2 variant expression
# Details: Mcl1-/- Bax-/- Vdac2-/- MEF
# Description: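 Deep mutational scan of human VDAC2 (FLAG-tagged) with single amino acid substitutions at positions Q165–F180, each barcoded clone expressed in Mcl1/Bax/Vdac2-deficient MEFs. Cells were stained with PE anti-FLAG and sorted into FLAG-high and FLAG-low fractions, and barcodes were counted by Illumina sequencing. The score is log2(CPM) in FLAG-high minus log2(CPM) in FLAG-low, per barcode; barcodes of the same variant are averaged.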
row,Variant,log2 fold difference
1,Q165G,0.675 ± 2.1
2,Q165I,-0.0417 ± 1
3,Q165T,1.2 ± 1.9
4,Q165L,1.41 ± 2.4
5,Q165H,2.68 ± 2.7
6,Q165A,0.624 ± 1.8
7,Q165R,1.24 ± 1.1
8,Q165D,1.62 ± 1.7
9,Q165V,0.91 ± 2
10,Q165F,1.17 ± 1.5
11,Q165N,1.85 ± 2.4
12,Q165E,1.93 ± 2.5
13,Q165S,1.78 ± 1.9
14,Q165W,0.623 ± 1.6
15,Q165P,-1.97 ± 2
16,Q165C,1.08 ± 1.3
17,Q165K,2.95 ± 2.8
18,Q165Y,2.98 ± 1.9
19,Q165M,1.64 ± 1.4
20,S170G,0.906 ± 1.5
21,S170F,0.787 ± 2.5
22,S170T,0.714 ± 0.81
23,S170W,2.17 ± 2.4
24,S170H,0.537 ± 0.61
25,S170P,0.561 ± 2
26,S170R,0.798 ± 1.7

row,Variant,log2 fold difference
1,S170N,2.8 ± 0.96
2,S170I,0.852 ± 2.3
3,S170K,2 ± 1.7
4,S170E,1.51 ± 2.7
5,S170L,0.822 ± 1.6
6,S170A,1.43 ± 1.7
7,S170Q,2.12 ± 1.8
8,S170V,0.727 ± 1.7
9,S170M,1.45 ± 3
10,S170Y,1.03 ± 1.1
11,S170C,0.236 ± 0.93
12,R177C,1.1 ± 1.6
13,R177A,0.751 ± 1.6
14,R177F,0.483 ± 1.8
15,R177Y,2.41 ± 2.1
16,R177L,1.44 ± 2
17,R177N,1.36 ± 1.6
18,R177Q,0.118 ± 0.59
19,R177E,1.85 ± 2
20,R177H,1.53 ± 2.1
21,R177I,0.478 ± 1.7
22,R177K,2.21 ± 0.98
23,R177G,1.21 ± 1.8
24,R177M,-0.0113 ± 0.79
25,R177P,-0.195 ± 1.9
26,R177W,0.158 ± 2

row,Variant,log2 fold difference
1,R177S,1.35 ± 1.6
2,R177V,0.985 ± 1.6
3,R177T,1.86 ± 2.2
4,R177D,0.965 ± 2.1
5,unchanged,1.16 ± 2.2
6,F168G,-0.693 ± 1.8
7,F168C,0.548 ± 2.3
8,F168N,0.373 ± 1.7
9,F168W,0.947 ± 1.3
10,F168A,0.387 ± 1.7
11,F168E,-1.4 ± 1.9
12,F168M,-0.549 ± 0.4
13,F168P,-1.55 ± 0.89
14,F168K,0.103 ± 2.9
15,F168S,0.168 ± 2
16,F168V,0.604 ± 1.4
17,F168Q,-0.713 ± 2.4
18,F168Y,1.15 ± 0.32
19,F168I,0.0357 ± 1.1
20,F168L,0.676 ± 1.8
21,F168T,0.163 ± 2.2
22,F168H,-0.292 ± 1.5
23,F168R,-0.242 ± 1.6
24,F168D,-0.627 ± 2.2
25,D169Q,1.17 ± 2.7
26,D169T,1.95 ± 2.7

row,Variant,log2 fold difference
1,D169F,0.243 ± 2.1
2,D169N,1.61 ± 1.9
3,D169V,0.925 ± 1.4
4,D169E,1 ± 1.5
5,D169L,0.904 ± 1.5
6,D169H,1.33 ± 1.9
7,D169R,1.07 ± 1.9
8,D169M,2.33 ± 2.3
9,D169G,0.366 ± 1.3
10,D169S,1.49 ± 2
11,D169W,0.201 ± 1.8
12,D169C,0.981 ± 1.9
13,D169P,1.93 ± 2.1
14,D169Y,1.23 ± 1.6
15,D169A,0.667 ± 2.3
16,D169I,0.624 ± 2.3
17,D169K,0.732 ± 1.9
18,T167W,-0.553 ± 1.6
19,T167F,1.13 ± 1.6
20,T167S,0.639 ± 1.4
21,T167C,1.88 ± 1.9
22,T167I,2.18 ± 2.2
23,T167M,2.45 ± 1.7
24,T167R,1.61 ± 2.3
25,T167Y,0.173 ± 1.2
26,T167P,-1.47 ± 2

row,Variant,log2 fold difference
1,T167Q,1.07 ± 1.2
2,T167N,1.72 ± 1.8
3,T167H,0.745 ± 2
4,T167D,1.13 ± 2.6
5,T167G,0.61 ± 1.4
6,T167K,1.56 ± 1.9
7,T167V,2.6 ± 2.4
8,T167E,1.87 ± 1.9
9,T167L,1.02 ± 2
10,T167A,1 ± 2.2
11,A171D,1.36 ± 1.8
12,A171F,0.745 ± 1.3
13,A171S,1.59 ± 2.1
14,A171T,1.99 ± 2.4
15,A171Q,1.46 ± 1
16,A171P,0.948 ± 1.5
17,A171G,1.02 ± 1.8
18,A171E,1.16 ± 1.4
19,A171M,2.53 ± 0.83
20,A171K,0.16 ± 2.5
21,A171W,0.123 ± 1.5
22,A171H,0.0673 ± 2.3
23,A171N,0.899 ± 1.6
24,A171C,0.968 ± 2
25,A171Y,2.38 ± 3.1
26,A171I,1.09 ± 1.3

row,Variant,log2 fold difference
1,A171V,1.81 ± 1.9
2,A171L,0.546 ± 2
3,A171R,1.46 ± 2
4,N178A,0.888 ± 1.9
5,N178Y,0.758 ± 1.1
6,N178T,1.35 ± 2
7,N178H,1.33 ± 2
8,N178W,1.85 ± 2.3
9,N178G,0.838 ± 2.2
10,N178P,0.19 ± 1.4
11,N178C,1.12 ± 1.1
12,N178S,1.76 ± 2.4
13,N178D,0.592 ± 2.2
14,N178L,0.926 ± 2
15,N178R,1.35 ± 1.8
16,N178I,0.42 ± 1.3
17,N178E,0.543 ± 2.4
18,N178F,1.21 ± 2.4
19,N178K,0.827 ± 1.8
20,N178M,1.31 ± 1.9
21,N178Q,1.94 ± 2.2
22,N178V,1.82 ± 1.9
